Experimental data as given in PubChem BioAssay AID485297 (National Center for Advancing Translational Sciences (NCATS), 2010).
Among all 320,000 compounds or so, about 9,100 (2.8%) were called active. Inconclusive means that the source gave no clear call. Such entries were picked first, then a sample of the others. Calls follow the shape of the dose curve; as a rule, active = well fitted activation curve with a large enough effect; inconclusive = small, poorly fitted or top-dose-only effect; inactive = no such curve, though single readings can be large or run the other way. Potencies of inconclusive entries are left out as doubtful fits.

Assay: qHTS Assay for Rab9 Promoter Activators; also: nearly all actives have a fitted effect of over 60% in size
Conditions: Huh7 Rab9 promoter-luciferase reporter, luminescence, 24 h; series mostly up to 9.22 µM
Outline: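 Rab9 promoter-driven luciferase in stably transfected Huh7 cells; 1500 cells/well rested 2 h, exposed to compound in DMSO for 24 h at 37 °C, 5% CO2. Luminescence read 10 min after adding luciferase reagent at ambient temperature.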
Potency is read from the fitted curve at half-maximal effect; tags tell the direction and shape of the fitted curve.

Question: With CC(=O)Oc1ccccc1C(=O)Nc1ncc([N+](=O)[O-])s1 as the compound, how does the Potency read?
Answer: The Potency was inconclusive [activator, partial curve].

Question: For CCc1ccc(N2C(=O)NC(=O)/C(=C\c3cccn3CCOc3ccc(C(C)C)cc3)C2=O)cc1, which Potency is on record?
Answer: The Potency was inconclusive [activator, partial curve].

Question: With O=C(NCC(c1cccnc1)N1CCOCC1)Oc1ccccc1 (configuration not stated) as the compound, how does the Potency read?
Answer: The Potency was inconclusive [activator, partial curve].

Question: For O=c1[nH]c(=S)[nH]c(O)c1N=Nc1ccc(SC(F)F)cc1, which Potency is on record?
Answer: Its Potency is active: 3.16 µM.

Question: With O=C(Nc1ccc(Cl)c(Cl)c1)c1ccco1 as the compound, how does the Potency read?
Answer: Its Potency is inconclusive [activator, single point].

Question: Which Potency does the source give for Cc1ccc(-c2noc(=O)n2CC(=O)Nc2ccc(S(=O)(=O)NC3CC3)cc2)cc1 here?
Answer: The Potency was inconclusive [activator, single point].

Question: For CCOc1ccc(-n2c(=O)c3c4c(sc3n(CC(=O)NCc3ccco3)c2=O)CCC4)cc1, which Potency is on record?
Answer: The Potency was inconclusive [activator, single point].

Question: For COCCOC(=O)c1c(N)n(Cc2ccc(OC)cc2)c2nc3ccccc3nc12, which Potency is on record?
Answer: The Potency was “inactive”.

Question: For COc1cccc(N=Nc2c(O)[nH]c(=S)[nH]c2=O)c1, which Potency is on record?
Answer: The Potency was inconclusive [activator, single point].

Question: For C=CCc1ccc(OC(=O)NC2CCCCC2)c(OC)c1, which Potency is on record?
Answer: Its Potency is active: 3.55 µM.

Question: Which Potency does the source give for CCN1CCN(/C=N/c2nc(C)cs2)CC1 here?
Answer: Its Potency is inconclusive [activator, partial curve].

Question: Which Potency does the source give for COc1ccc2c(c1)/C(=C/c1cnc[nH]1)C(=O)N2 here?
Answer: The Potency was “inactive”.

Question: With CC(=O)OC1N=C(c2ccccc2Cl)c2cc(Br)ccc2NC1=O (configuration not stated) as the compound, how does the Potency read?
Answer: Its Potency is “inactive”.

Question: Which Potency does the source give for Cc1ccc(-c2nn(Cc3ccccc3)cc2C=O)cc1 here?
Answer: Its Potency is active: 3.55 µM.

Question: With Nc1ccc2c(c1)Cc1ccccc1-2 as the compound, how does the Potency read?
Answer: The Potency was inconclusive [activator, single point].

Question: With Nc1ccc(N=Nc2ccccc2)cc1 as the compound, how does the Potency read?
Answer: The Potency was inconclusive [activator, partial curve].

Question: With Nc1c2c(nc3ccccc13)CCN(Cc1ccccc1)C2 as the compound, how does the Potency read?
Answer: Its Potency is “inactive”.

Question: For N#C/C(=C(/O)c1ccc(S(=O)(=O)N(CCCl)CCCl)cc1)c1nc2ccccc2[nH]1, which Potency is on record?
Answer: The Potency was inconclusive [activator, partial curve].

Question: Which Potency does the source give for COc1ccc(-[n+]2c(-c3ccccc3)cc(-c3ccc(C)cc3)cc2-c2ccccc2)cc1 here?
Answer: Its Potency is “inactive”.

Question: For O=C(N/N=C/c1c(O)n(C2CC2)c(=S)[nH]c1=O)c1ccccc1O, which Potency is on record?
Answer: The Potency was inconclusive [activator, partial curve].

Question: With Cc1cnn(-c2cc(Oc3ccccc3)ncn2)c1 as the compound, how does the Potency read?
Answer: The Potency was inconclusive [activator, single point].

Question: With Cc1ccc(NC(=O)Nc2cccc3ccccc23)cc1 as the compound, how does the Potency read?
Answer: Its Potency is inconclusive [activator, full curve].

Question: Which Potency does the source give for Cc1ccc2nc(N3CCN(C)CC3)[nH]c2c1 here?
Answer: Its Potency is inconclusive [activator, partial curve].

Question: For COc1ccc(NC(=O)O/N=C/c2ccccc2)cc1, which Potency is on record?
Answer: The Potency was inconclusive [activator, partial curve].

Question: Which Potency does the source give for COc1cccc(-c2nc3ccc(N4CCN(C)CC4)cc3[nH]2)c1 here?
Answer: Its Potency is inconclusive [activator, full curve].

Question: Which Potency does the source give for CCCCCCN=C(CC)c1c(O)n(CCCC)c(=O)[nH]c1=O here?
Answer: Its Potency is inconclusive [activator, single point].

Question: Which Potency does the source give for O=c1oc2ccccc2n1CCCOc1ccccc1 here?
Answer: The Potency was inconclusive [activator, single point].

Question: Which Potency does the source give for C#C[C@]1(O)CC[C@H]2[C@@H]3CCC4=CC(=O)CC[C@]4(C)[C@H]3CC[C@@]21C here?
Answer: The Potency was “inactive”.

Question: Which Potency does the source give for Cc1cc(=O)oc2cc(OCC(=O)N3CCN(C(C)c4ccccc4)CC3)c(Cl)cc12 (configuration not stated) here?
Answer: Its Potency is “inactive”.

Question: For COc1ccccc1N(CC(=O)NC1CCCC1)C(=O)c1cnn(C(C)C)c1, which Potency is on record?
Answer: Its Potency is inconclusive [activator, partial curve].

Question: Which Potency does the source give for CN(C)c1ccc(/C=C2/C(=N\O)C3CCN2CC3)cc1 here?
Answer: The Potency was active: 2.82 µM.

Question: For N=C1c2ccccc2CN1CC(=O)c1ccccc1, which Potency is on record?
Answer: The Potency was inconclusive [activator, single point].

Question: For COc1ccccc1OCCCn1cc(C=O)c2ccccc21, which Potency is on record?
Answer: Its Potency is active: 0.501 µM.

Question: For COc1cc(/C=C(/C)[N+](=O)[O-])ccc1OCc1ccccc1Cl, which Potency is on record?
Answer: The Potency was “inactive”.

Question: For CCOC(=O)C(=CNc1ccc(C(O)(C(=O)OCC)C(F)(F)F)cc1C)C(=O)OCC (configuration not stated), which Potency is on record?
Answer: The Potency was “inactive”.

Question: Which Potency does the source give for COc1ccc(NC2CC(=O)N(C(C)C)C2=O)cc1 (configuration not stated) here?
Answer: Its Potency is active: 3.16 µM.

Question: With CN1C(=O)C(=Cc2ccc(N3CCCCCC3)o2)C(=O)N(C)C1=S as the compound, how does the Potency read?
Answer: Its Potency is inconclusive [activator, partial curve].

Question: For COc1ccc(-n2nc(C(=O)NCC(=O)N3CCC4(CC3)OCCO4)c3ccccc3c2=O)cc1OC, which Potency is on record?
Answer: Its Potency is inconclusive [activator, partial curve].

Question: Which Potency does the source give for COC(=O)C(O)(c1ccc(NC(=O)c2cccs2)cc1)C(F)(F)F (configuration not stated) here?
Answer: The Potency was inconclusive [activator, partial curve].

Question: For Cc1c(C(=O)Nc2ccccc2)cc(-c2ccccc2)n1CCCN1CCOCC1, which Potency is on record?
Answer: Its Potency is “inactive”.

Question: Which Potency does the source give for Cn1nnc2cc(NC(=O)Nc3cccc(Cl)c3)ccc21 here?
Answer: The Potency was active: 1.41 µM.

Question: Which Potency does the source give for Cc1cccn2c(NCC3CCCO3)c(C(C)C)nc12 (configuration not stated) here?
Answer: Its Potency is inconclusive [activator, partial curve].

Question: For O=C(c1cc2c(s1)-c1ccccc1OC2)N1CCC2(CC1)OCCO2, which Potency is on record?
Answer: The Potency was active: 0.891 µM.

Question: Which Potency does the source give for Cc1ccc2nc(N3CCC(C(=O)N4CCC5(CC4)OCCO5)CC3)sc2c1 here?
Answer: Its Potency is inconclusive [activator, partial curve].

Question: With Cc1ccc(-c2cc(NC(=O)c3ccccc3)on2)cc1 as the compound, how does the Potency read?
Answer: The Potency was active: 2.24 µM.

Question: For c1ccc2sc(NC3=NCCN3)nc2c1, which Potency is on record?
Answer: The Potency was inconclusive [activator, partial curve].

Question: Which Potency does the source give for O=Cc1cn(CCCOc2ccccc2)c2ccccc12 here?
Answer: Its Potency is inconclusive [activator, partial curve].

Question: Which Potency does the source give for c1ccc(NC2=Nc3ccccc3CC2)cc1 here?
Answer: Its Potency is inconclusive [activator, single point].

Question: For CCN(CC)C(=O)c1ccc(NC(=O)c2cccc(S(=O)(=O)N3CCN(C)CC3)c2)cc1, which Potency is on record?
Answer: Its Potency is “inactive”.

Question: Which Potency does the source give for CC(Cc1ccccc1)NC(=O)NC(C)Cc1ccccc1 (configuration not stated) here?
Answer: Its Potency is active: 2.82 µM.

Question: For CCc1ccc(-c2nn(Cc3ccccc3)cc2C=O)cc1, which Potency is on record?
Answer: Its Potency is active: 1 µM.

Question: Which Potency does the source give for CCNC(=S)N(C)CCc1cc2c(c(OC)c1C=C1C(=O)N(C)C(=O)N(C)C1=O)OCO2 here?
Answer: Its Potency is “inactive”.

Question: For O=C(Cn1ncc2c3ccccc3n(Cc3ccc(F)cc3)c2c1=O)N1CCC2(CC1)OCCO2, which Potency is on record?
Answer: Its Potency is “inactive”.

Question: Which Potency does the source give for COC(=O)c1ccc(CC(C(=O)c2ccccc2)N(C)C)cc1 (configuration not stated) here?
Answer: Its Potency is inconclusive [activator, partial curve].

Question: With CC(C)(C)n1cccc1/C=C1\C(=O)NC(=O)N(c2ccccc2)C1=O as the compound, how does the Potency read?
Answer: The Potency was “inactive”.

Question: Which Potency does the source give for C/C(=N\OC(=O)NC(C)C)c1sc(-c2ccccc2)nc1C here?
Answer: Its Potency is inconclusive [activator, partial curve].

Question: Which Potency does the source give for CC(C)CCn1c(N)c(C(=O)NCc2cccs2)c2nc3ccccc3nc21 here?
Answer: The Potency was “inactive”.

Question: For CN(C)C(=O)Oc1ccc(OC(=O)N(C)C)cc1, which Potency is on record?
Answer: Its Potency is inconclusive [activator, single point].

Question: With CC(C)c1ccc(N=Nc2c(O)[nH]c(=O)[nH]c2=O)cc1 as the compound, how does the Potency read?
Answer: Its Potency is inconclusive [activator, single point].

Question: For Cc1ccc(S(=O)(=O)N2CCCC2c2cccnc2)cc1 (configuration not stated), which Potency is on record?
Answer: Its Potency is “inactive”.

Question: For COc1ccc(-n2c(-c3ccc(C)cc3)nc3ccccc3c2=O)cc1, which Potency is on record?
Answer: Its Potency is inconclusive [activator, single point].

Question: Which Potency does the source give for O=C(c1cc2c(s1)CCCCCC2)N1CCC2(CC1)OCCO2 here?
Answer: The Potency was “inactive”.

Question: Which Potency does the source give for CCN(CC)S(=O)(=O)c1cc(NC(=O)C(C)N2CC=C(c3ccccc3)CC2)ccc1C (configuration not stated) here?
Answer: Its Potency is “inactive”.

Question: Which Potency does the source give for Cc1nc2ccc(NC(=O)c3ccc(Cl)s3)cc2s1 here?
Answer: The Potency was active: 1.58 µM.

Question: With CCC(C)NC(=O)c1c(N)n(CCCOC)c2nc3ccccc3nc12 (configuration not stated) as the compound, how does the Potency read?
Answer: Its Potency is “inactive”.

Question: Which Potency does the source give for COc1ccc(-c2cc(=Nc3cccc(C(=O)O)c3)c3cc(C)ccc3o2)cc1 here?
Answer: The Potency was inconclusive [activator, single point].

Question: Which Potency does the source give for Cc1cc(C)cc(OCCOc2cccc(C=C3C(=O)NC(=O)NC3=O)c2)c1 here?
Answer: Its Potency is inconclusive [activator, single point].

Question: For CCN(CC)C(=O)c1ccc(NC(=O)Nc2ccccc2F)cc1, which Potency is on record?
Answer: The Potency was inconclusive [activator, partial curve].

Question: With O=C(c1cc(-c2ccc(Cl)cc2)n(-c2ccc(Cl)cc2Cl)n1)N1CCOCC1 as the compound, how does the Potency read?
Answer: The Potency was “inactive”.

Question: Which Potency does the source give for Nc1ccc2c(c1)Cc1cc([N+](=O)[O-])ccc1-2 here?
Answer: Its Potency is inconclusive [activator, partial curve].

Question: With Cc1c(C(=O)N2CCC3(CC2)OCCO3)sc2ncnc(N3CCc4ccccc4C3)c12 as the compound, how does the Potency read?
Answer: The Potency was “inactive”.

Question: Which Potency does the source give for Cn1c(O)c(/C=N/c2ncccn2)c(=O)n(C)c1=O here?
Answer: The Potency was “inactive”.

Question: With O=C(Cc1c(O)c2ccccc2oc1=O)c1ccc(F)cc1 as the compound, how does the Potency read?
Answer: The Potency was inconclusive [activator, single point].

Question: For Cc1ccc2nc3c(cc2c1)CC1(C(=O)N(C)C(=O)N(C)C1=O)C1COCCN31 (configuration not stated), which Potency is on record?
Answer: The Potency was “inactive”.

Question: With Cc1ccc2c(c1N)C(=O)c1ccccc1C2=O as the compound, how does the Potency read?
Answer: Its Potency is inconclusive [activator, single point].

Question: Which Potency does the source give for CN(C)C(=O)Oc1cccc(-c2cn3cc(Cl)ccc3n2)c1 here?
Answer: Its Potency is inconclusive [activator, partial curve].

Question: For O=C(CSc1nnc(NC(=O)c2ccccc2F)s1)NCc1ccc(F)cc1, which Potency is on record?
Answer: The Potency was inconclusive [activator, partial curve].
